Laboratory results taken from article PMC10618452.
These are yes or no findings as the source states them, for the method shown. Binding seen in cells or lysates may run through a third protein. Some results given as binding are weak or reduced against the parent protein; the word gives no strength.

By UniProt entry, the sequences of proteins in these tests, tags left out. Where a name states a change or a piece, a line headed by the entry shows the natural chain unless it says otherwise.
UniProt Q03468: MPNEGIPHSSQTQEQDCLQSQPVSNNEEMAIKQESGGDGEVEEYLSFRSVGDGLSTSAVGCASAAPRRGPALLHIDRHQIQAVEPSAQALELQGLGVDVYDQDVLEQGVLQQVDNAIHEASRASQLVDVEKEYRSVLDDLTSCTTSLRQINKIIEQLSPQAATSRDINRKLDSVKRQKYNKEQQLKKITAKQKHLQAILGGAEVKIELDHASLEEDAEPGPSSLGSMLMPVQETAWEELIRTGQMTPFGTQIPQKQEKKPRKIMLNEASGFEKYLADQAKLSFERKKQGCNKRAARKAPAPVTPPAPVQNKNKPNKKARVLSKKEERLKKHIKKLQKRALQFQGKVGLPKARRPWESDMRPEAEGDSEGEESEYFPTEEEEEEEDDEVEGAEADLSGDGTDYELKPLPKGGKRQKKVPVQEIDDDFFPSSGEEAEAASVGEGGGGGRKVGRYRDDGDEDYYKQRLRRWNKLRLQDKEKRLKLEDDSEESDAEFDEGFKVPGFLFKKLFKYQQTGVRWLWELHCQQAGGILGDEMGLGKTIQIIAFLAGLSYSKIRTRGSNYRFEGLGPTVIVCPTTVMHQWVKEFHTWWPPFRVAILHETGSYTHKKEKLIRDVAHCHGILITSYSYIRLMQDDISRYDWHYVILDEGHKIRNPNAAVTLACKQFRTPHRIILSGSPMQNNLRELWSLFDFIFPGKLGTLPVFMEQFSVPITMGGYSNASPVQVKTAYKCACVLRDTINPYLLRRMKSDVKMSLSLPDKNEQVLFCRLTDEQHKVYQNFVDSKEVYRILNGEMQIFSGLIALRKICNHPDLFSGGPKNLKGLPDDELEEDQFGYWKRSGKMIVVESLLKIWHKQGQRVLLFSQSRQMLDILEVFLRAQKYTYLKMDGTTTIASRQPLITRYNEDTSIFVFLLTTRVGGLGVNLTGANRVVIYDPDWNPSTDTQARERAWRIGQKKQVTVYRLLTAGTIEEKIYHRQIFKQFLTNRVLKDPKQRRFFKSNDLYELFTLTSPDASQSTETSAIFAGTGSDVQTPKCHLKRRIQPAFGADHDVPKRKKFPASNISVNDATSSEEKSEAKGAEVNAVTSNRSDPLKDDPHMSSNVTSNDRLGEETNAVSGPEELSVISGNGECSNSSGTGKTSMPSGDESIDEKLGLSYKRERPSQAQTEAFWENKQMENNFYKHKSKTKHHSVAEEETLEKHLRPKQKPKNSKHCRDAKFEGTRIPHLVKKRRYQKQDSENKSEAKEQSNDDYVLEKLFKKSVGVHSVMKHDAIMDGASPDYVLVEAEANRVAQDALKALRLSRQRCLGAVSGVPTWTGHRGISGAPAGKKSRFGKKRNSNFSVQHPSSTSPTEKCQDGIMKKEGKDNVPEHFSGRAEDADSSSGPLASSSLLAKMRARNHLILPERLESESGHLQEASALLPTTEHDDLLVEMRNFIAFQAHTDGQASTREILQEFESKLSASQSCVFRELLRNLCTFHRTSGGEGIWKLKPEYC
UniProt O60884: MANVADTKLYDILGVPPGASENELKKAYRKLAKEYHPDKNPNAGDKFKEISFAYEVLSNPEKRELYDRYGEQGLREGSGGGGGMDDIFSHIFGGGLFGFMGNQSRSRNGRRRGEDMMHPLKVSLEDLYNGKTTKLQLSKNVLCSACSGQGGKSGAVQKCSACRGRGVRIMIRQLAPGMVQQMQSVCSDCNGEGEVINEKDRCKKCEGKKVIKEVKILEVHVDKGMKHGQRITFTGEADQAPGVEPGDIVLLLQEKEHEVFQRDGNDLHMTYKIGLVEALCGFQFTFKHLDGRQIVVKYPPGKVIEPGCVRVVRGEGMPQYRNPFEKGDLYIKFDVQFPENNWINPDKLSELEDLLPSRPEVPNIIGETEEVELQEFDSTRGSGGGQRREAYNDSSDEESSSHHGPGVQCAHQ
UniProt P11142: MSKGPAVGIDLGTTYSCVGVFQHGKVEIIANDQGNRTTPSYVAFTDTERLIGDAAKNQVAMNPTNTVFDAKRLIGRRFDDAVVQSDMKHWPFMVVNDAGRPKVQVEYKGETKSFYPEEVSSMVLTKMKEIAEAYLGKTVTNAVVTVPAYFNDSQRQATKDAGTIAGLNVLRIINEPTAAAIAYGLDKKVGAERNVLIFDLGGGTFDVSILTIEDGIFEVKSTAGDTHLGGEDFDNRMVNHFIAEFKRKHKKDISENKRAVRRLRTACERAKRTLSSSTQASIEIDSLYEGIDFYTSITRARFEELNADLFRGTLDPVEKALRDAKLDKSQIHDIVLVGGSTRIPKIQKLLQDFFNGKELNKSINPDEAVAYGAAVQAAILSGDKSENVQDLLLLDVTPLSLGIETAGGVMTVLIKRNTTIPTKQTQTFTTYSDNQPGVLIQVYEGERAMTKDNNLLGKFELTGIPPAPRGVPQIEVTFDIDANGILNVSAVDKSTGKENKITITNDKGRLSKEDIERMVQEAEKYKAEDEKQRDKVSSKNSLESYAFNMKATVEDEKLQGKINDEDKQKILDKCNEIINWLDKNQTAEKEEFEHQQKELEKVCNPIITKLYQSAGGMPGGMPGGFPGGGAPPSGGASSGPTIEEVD

What was measured:
[1] = molecular target: CSB (Cockayne syndrome group B protein), endogenous in HeLa cells (human (endogenous in HeLa)) (UniProt Q03468); assay: proximity ligation; Duolink In Situ Red kit on fixed, permeabilised HeLa cells (WT, DJ2^-/-), with or without UV (20 J/m^2), fixed 1.5 h after; CSB^-/- cells as negative control
[2] = molecular target: myc-tagged WT CSB (Cockayne syndrome group B protein), ectopically expressed (human) (UniProt Q03468); assay: co-IP; chromatin co-IP: chromatin fraction solubilised in EBC-150 buffer with Universal nuclease, NaCl adjusted to 300 mM; primary antibody overnight, Protein G agarose; washed 5 times with EBC-300 buffer; with or without UV
[3] = molecular target: CSB (K205R), myc-tagged (human) (UniProt Q03468); assay: co-IP; whole-cell lysates of HeLa cells (CSB^-/- cells expressing CSB, AA-CSB or CSB (K205R); WT and DJ2^-/- cells), with or without UV (20 J/m^2), harvested 1.5 h after; lysis in 50 mM Tris-HCl pH 7.4, 150 mM NaCl, 1% NP-40, 1 mM EDTA, 1% sodium deoxycholate; primary antibody (anti-CSB) overnight, Protein G agarose; washes with 150, 300 and 450 mM NaCl; Western blot
[4] = molecular target: myc-tagged WT CSB (Cockayne syndrome group B protein), ectopically expressed (human) (UniProt Q03468); assay: as above
[5] = molecular target: CSB (Cockayne syndrome group B protein), endogenous in HeLa cells (human (endogenous in HeLa)) (UniProt Q03468); assay: condition: only cells treated with 40 uM of the sumoylation inhibitor 2-D08; proximity ligation; Duolink PLA on HeLa cells pre-treated with 40 uM of the sumoylation inhibitor 2-D08 for 6 h before UV (20 J/m^2), cultured 1.5 h more with 2-D08
[6] = molecular target: CSB (Cockayne syndrome group B protein), endogenous in HeLa cells (human (endogenous in HeLa)) (UniProt Q03468); assay: co-IP; whole-cell lysates of HeLa cells (CSB^-/- cells expressing CSB, AA-CSB or CSB (K205R); WT and DJ2^-/- cells), with or without UV (20 J/m^2), harvested 1.5 h after; lysis in 50 mM Tris-HCl pH 7.4, 150 mM NaCl, 1% NP-40, 1 mM EDTA, 1% sodium deoxycholate; primary antibody (anti-CSB) overnight, Protein G agarose; washes with 150, 300 and 450 mM NaCl; Western blot

Row | binding [1] | binding [2] | binding [3] | binding [4] | binding [5] | binding [6] | Substance
1 | binds | binds | binds weakly | binds | – | – | DNAJA2 (heat shock protein, HSP40 family), endogenous in HeLa cells (from UniProt O60884 1-412)
2 | binds | binds | binds weakly | binds | no binding | binds | HSC70 (71 kDa heat shock cognate protein), endogenous in HeLa cells (from UniProt P11142 1-646)
